According to the RNAGym collection of RNA variant scans (doi:10.1093/nar/gkz1192):
The source gives no read counts; variants with many changes may rest on few reads.

B1: CPEB3 Ribozyme (parent)
chain: UAACAGGGGGCCACAGCAGAAGCGUUCACGUCGCAGCCCCUGUCAGAUUCUGGUGAAUCUGCGAAUUCUGCUGUAUAUCUC

Variants of: B1
Experiment: self-cleavage, relative activity (ratio to wild type); higher = more cleavage; in vitro, sequencing
In short: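 Relative activity was defined as the cleaved/total read fraction for a variant divided by the same fraction for the unmutated ribozyme. CPEB3 self-cleaving ribozyme libraries were made by rounds of error-prone PCR, barcoded, and transcribed in vitro with T7 RNA polymerase for 5 hours at 37°C, and cleavage ran through transcription plus a 15 min DNase I step before EDTA. Illumina sequencing of template-switched reverse transcripts gave the reads, and DNA sequencing mapped the barcodes. Averages come from three batches, using variants with at least 5 reads.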

Variant | self-cleavage
A3G G24A U26A U54C G73A | 0.12
A3U C17G U26C U51C | 0.36
A3G C11U U41C U43A | 0.4
A3G G7A G9A U54C | 0.16
A3G U51C G55A | 0.61
A3U A20U A35U U41A | 0.37
A3G U31C U51G U74C | 1.04
A3U A5G C11G G19C U25C U43G | 0.08
A3G U26C G52U A56G G63U | 0.76
A3U A18U A28U A65G U78A | 0.28
A3U A20C U49C U76A | 0.09
A3G C29A U49A | 0.42
A3G U26C U51A U60C | 0.33
A3G G16C U69A A75U U78C | 0.4
A3G U25C G63U | 0.56
A3G C12A A35U G42A A45G U72A | 0.14
A3G A57G U58C | 0.45
A3G G10A C32U U78A | 0.18
A3G U31A U43G A45G | 0.49
A3G C11U C14U U60A U67C | 0.24
A3G C29U U54C A56U | 0.33
A3U A15U U54C A64U C71U U72C | 0.13
A3G U26G U51A U58G | 0.07
A3U A18C U69G U74C | 1.35

Variant | self-cleavage
A3G G10A A15G A20G C50A A64G | 0.12
A3G U51A U67A | 0.55
A3U C12U A15U G22U C39G U60C | 0.1
A3G C23U U48C U49A | 0.09
A3G U31A A45G A64G | 0.38
A3G G8A G30A A56U A57G U72C | 0.09
A3G G8C G22A C50G A57G | 0.05
A3G C12G U49C U67C | 0.08
A3G G8U G36A U60A A64U | 0.05
A3U A47U U69C | 0.2
A3G C17U A28G U58C U78C | 0.09
A3G U51A G52C | 1.12
A3U A45C G70A | 0.16
A3G A45U U67G | 0.26
A3G G8A U41A A56G | 0.21
A3U A18G U41C U66C U67A U80C | 0.24
A3G G7C U26C C32U U49A U58C U69C | 0.06
A3U A35G U69C C81A | 1.04
A3U A21G A35G U69A U72C | 0.6
A3G U31C U74A A75G | 0.91
A3G C44U U58C | 0.25
A3G U49C U54A | 0.43
A3U A45G U49C U51A | 0.18
A3G U31A C50G A57G A65U | 0.22

Variant | self-cleavage
A3G G19A U26C A65G U69C U72A | 0.06
A3G U54A A64G U66A | 0.29
A3U A28G A45C U72C | 0.22
A3U A20G A64G | 0.52
A3G C29U A64U A65G | 0.35
A3G G19C U48C U54A U69C | 0.23
A3G A64G U74C U78A | 1.1
A3U C11G G19A A20G A64U U66A U72C | 0.08
A3G G9A C23U A65G | 0.19
A3G U26A U41A U51A U67C | 0.14
A3U A35U A47U U69A | 0.21
A3G U41C U60A A65G A77U | 0.45
A3G G46U A64G A65G | 0.52
A3G C23A A56G | 0.16
A3U C12G A15U A20U U31C A45U | 0.07
A3G U48C G63U U74A | 0.95
A3U A18G U51C U69C | 0.75
A3G U51C A75G | 0.98
A3U A18C G33A A64G | 0.07
A3G U25C A64U | 0.18
A3G C23U U43C U60A | 0.06
A3G G24A U41A U67A | 0.12
A3G U72C U74C | 1.19
A3G C12G C37G U43A A47G U51C | 0.36

Variant | self-cleavage
A3G G24C A28G U31C U49C | 0.53
A3G U31A A35U A45G U60G | 0.16
A3U A35G U43G U60A | 0.16
A3U A35G G42A A45G G52A | 0.52
A3G U41A U48C U66C | 0.1
A3G U31C U60A | 0.38
A3U C17A G19U A56G A77G U78A | 0.35
A3G U25C C29G A35G G73U U78A | 0.64
A3G U60C A77U | 0.74
A3U C12U U26A G30C C50U G63U A64G | 0.08
A3G C12U G19A C27U | 0.09
A3U A5U G7U A35U | 0.3
A3G G9A C14U U26C | 0.09
A3U C17U A28G A45U U66C | 0.15
A3U A13U A18C A28G U58C | 0.25
A3G G10A U25C A28U U60A C68A C71U | 0.05
A3G C12A A45U U60G C81A | 0.88
A3G G8A U49C A57C A64G U74C | 0.06
A3G U41A A45G U60C A75C | 0.44
A3G U26A U60A A64G U74C | 0.35
A3G U60A U67C U78G | 0.21
A3U C12U G30C A56U C62A U76A | 0.22
A3G G52C U60C C71U | 0.64
A3G U41A U49C U67A | 0.1

Variant | self-cleavage
A3G C27G A47G U60A C71G | 0.06
A3U A13G A18U U41A U58C | 0.61
A3G U41C U43A A45G A65G U74A U78C | 0.11
A3G G24A U51C | 0.12
A3U A20U A47G G63A U72C | 0.44
A3G G9A U67C C71A C79U | 0.03
A3G G7A A21G U25C U26C U78C | 0.08
A3U C11U A18G U31A | 0.11
A3U A18U U78C | 0
A3G A57U U60C | 0.57
A3G U26C G46U U49C U72A U80C | 0.08
A3G U43A U48C A57G | 1.02
A3G G8A G30A | 0.27
A3U A5G U43A | 0.82
A3G C23U A28U A65C | 0.09
A3G U25C U41C A64U | 0.38
A3G G8A A47C | 0.06
A3G C27A U43C | 0.5
A3G C40U A56U U72A | 0.16
A3G A57G U78C | 0.82
A3G U25G A65G U80A | 0.18
A3G C11U G73C A77U | 1.05
A3G U58C G70A U80C | 0.42
A3G C39U A56G U74C | 0.46

Variant | self-cleavage
A3G C32A C39A A56G U69C U72C A77G | 0
A3G G9U A35U U74C | 0.52
A3G C11G U58C U74A | 0.15
A3G U26C A57U U58C | 0.14
A3G A57G U67A U78C | 0.34
A3G U26C A28U U69A | 0.28
A3G U51C U60C | 0.33
A3G U25C U58A C71G | 0.13
A3U A20U G36U U43C U51C U69G | 0.05
A3G A56G U58C U69C | 0.21
A3G C29U C34G U51C U69C | 0.07
A3G C12U C79A | 1.17
A3U A56G A64U | 0.3
A3U C23U U25C A56U G61A U74A A77U | 0.04
A3G U78C C79G | 1.16
A3U A45G G53A | 1.13
A3G U58A U78A | 0.47
A3G C11G C12U G36A U78C | 0.1
A3G U48C A56G U80C | 0.41
A3G U67C U76C | 0.27
A3G G10A A35G U43G A77G U78C | 0.11
A3G U43C U48C A64U C68A | 0.04
A3U A45C U49C G52C A56G | 0.38
A3G G7A U25G U54A U80C | 0.06

Variant | self-cleavage
A3G G7C A13G C14A A28C U72A | 0.06
A3G U41A A64U U74G U76A | 0.16
A3G A45U A65G U78G | 0.31
A3G C23U A56G | 0.43
A3G G19C G30U A64G | 0.08
A3G U60C U69C | 0.44
A3U A21G U31C U51A A64U | 0.14
A3G A47G A64U | 0.48
A3G G10A A35G | 1.09
A3G C4A G24A U54A A64G U76C | 0.24
A3U A15U U25C C29G A45G U78A | 0.07
A3G U60A A64U | 0.25
A3G C4G G8C A21G U26C C79A | 0.78
A3U A13G A18U A20G A57G A64G | 0.06
A3G G10C A20C U51A A56G | 0.52
A3G U25C U31C U60C C62U | 0.06
A3G G33U U49C | 0.24
A3G G7A A21G A35U | 0.28
A3G U51A A75G | 0.65
A3G G6U A57U | 0.35
A3G U41C A57G | 1.03
A3U C11U A15G A35U U48A U67A A75U | 0.05
A3G U26A U49C A77C | 0.32
